The list shows a part of the results.
These compounds were tested on T1, C. trachomatis L2/434/Bu expressing GFP (CTL2-GFP). Settings: total inclusion area; 28.5 h, 10 µM; inhibitor.
T1 construct: L2/434/Bu GFP intracellular growth in HeLa cells
Parameters: species or system HeLa; C. trachomatis total inclusion area by high-content imaging, normalised to DMSO
Procedure, shortened: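 Following bulk GFP and resorufin fluorescence reads, infected cells were fixed, Hoechst-stained and imaged on a high-content platform. Inclusion total area and number per well served as growth proxies; nuclei counts indicated host viability. MICs were derived as for the fluorescence assay.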

Row | Structure (SMILES) | % of control remaining
1 | O=C(Nc1cccc(Cl)c1Cl)c1cnc2n(c1=O)CCS2 [CBK287380] | 65.7578
2 | OC(CN1CCC(O)(c2ccc(F)cc2)CC1)c1ccc(Cl)cc1 (centres unmarked) [CBK283311] | 86.5556
3 | Nc1ncnc(NCCc2c[nH]c3ccccc23)c1[N+](=O)[O-] [CBK267283] | 52.887
4 | COc1ccc(CC(=O)N2CCC(Cc3ccccc3-c3ccccc3)(C(N)=O)CC2)cc1 [CBK285911] | 117.228
5 | COc1ccccc1OCC(O)CN1CCN(C(=O)c2ccccc2)CC1 (centres unmarked) [CBK074386C] | 95.621
6 | CCOC(=O)c1cnn(C2CCCN(Cc3c(C)n[nH]c3C)C2)c1 (centres unmarked) [CBK304059] | 82.8589
7 | O=C(c1c(F)cccc1F)N1CCC(c2cc3cccnc3[nH]2)CC1 [CBK284997] | 95.967
8 | Cc1cc(NC(=O)CCN2CCCCC2)no1 [CBK017079] | 97.4373
9 | O=C(NCc1cccs1)c1ccc2c(=O)n3c(nc2c1)CCN(Cc1ccccc1)CC3 [CBK286448] | 78.4214
10 | O=C(Nc1nc2c(s1)CCCCC2)C1CN(S(=O)(=O)c2ccc(F)cc2)C1 [CBK286005] | 96.4004
11 | COc1ccccc1C1(NC(=O)c2cnsc2)CCCC1 [CBK283643] | 107.962
12 | O=C1c2ccc(S(=O)(=O)c3ccc4c(c3)C(=O)N(c3nccs3)C4=O)cc2C(=O)N1c1nccs1 [CBK261335] | 94.6289
13 | Cc1noc(C)c1NC(=O)c1ccno1 [CBK200394] | 103.718
14 | O=S(=O)(/N=C(/c1ccc(Cl)cc1)N1CCOCC1)c1ccccc1 [CBK293950] | 102.221
15 | CC1=CCC2(CC1)COC(C(C)(C)CN(C)C)OC2 (centres unmarked) [CBK011369] | 118.157
16 | Cc1ccc(-c2nc3ccccc3s2)cc1NC(=O)c1sc2ccccc2c1Cl [CBK263865] | 111.829
17 | CC(C)COC(=O)N1CCC(N(C)Cc2ccc(-c3ccc(S(C)(=O)=O)cc3)nc2)CC1 [CBK165259T] | 55.6879
18 | Cn1ncc2c(=O)n(Cc3noc(-c4ccsc4)n3)cnc21 [CBK305056] | 54.451
19 | COC(=O)c1csc2c1N[C@H](C1CC3C=CC1C3)[C@@H]1CCO[C@H]21 (some centres unmarked) [CBK303251] | 72.3476
20 | COc1cc2c(cc1OC)C1c3ccccc3NC(c3ccccc3F)N1CC2 (centres unmarked) [CBK286311] | 91.883
21 | Cc1nc2ccc(C(=O)N3CCCCC3)cn2c1N(C)C=O [CBK145480] | 97.676

Row | Structure (SMILES) | % of control remaining
22 | O=C(NCc1ccccc1)c1cnsn1 [CBK267302] | 107.145
23 | Cc1ccc(OCC(=O)Nc2ncn(Cc3cccnc3)n2)cc1 [CBK304888] | 71.5868
24 | Cc1ccc(CNC(=O)c2ccc(-n3ccnc3)c(-n3cccc3)c2)o1 [CBK284812] | 110.133
25 | CC(NCc1nc(=O)c2sccc2[nH]1)c1ccc2c(c1)OCCO2 (centres unmarked) [CBK295157] | 95.8339
26 | CCC1=C(C)C(=O)N(C(=O)NCCc2ccc(S(=O)(=O)NC(=O)NC3CCC(C)CC3)cc2)C1 (centres unmarked) [CBK011561] | 86.6886
27 | Cc1ncc(COP(=O)(O)O)c(/C=N/c2ccc3ccccc3c2)c1O [CBK261460] | 70.8087
28 | CC(Cc1cccs1)NC(=O)c1cc(C2CC2)on1 (centres unmarked) [CBK283244] | 84.7285
29 | CC(C)=NNC(=O)CN(c1ccc(C)cc1)S(=O)(=O)c1ccccc1 [CBK262280] | 88.5864
30 | CNC(C)Cc1ccccc1Sc1ccccc1 (centres unmarked) [CBK027167G] | 63.4599
31 | CC(Oc1ccccc1)C(=O)Nc1ccccc1-c1ccccc1 (centres unmarked) [CBK264059] | 80.0868
32 | Cc1noc(C)c1NC(=O)N(Cc1ccccc1C(F)(F)F)C1CCC(N)CC1 (centres unmarked) [CBK045963C] | 53.0347
33 | COc1ccc(CN2CCCc3ccccc32)cc1 [CBK126458] | 94.5396
34 | COC(=O)NC(=S)Nc1ccc2c(c1)OCCO2 [CBK018644] | 92.588
35 | CCC(C)(CC(=O)O)CC(=O)N1CCC2(C1)NCCc1c2[nH]c2ccccc12 (centres unmarked) [CBK047003] | 102.155
36 | O=C(Nc1ccccc1C(=O)O)c1ccccc1Cl [CBK287114] | 99.5583
37 | CCN(CC)CCNC(=O)C1CCCCN1S(=O)(=O)c1ccc(C)cc1 (centres unmarked) [CBK101088] | 80.6952
38 | COC(=O)c1cccc(OCC(O)Cn2ccnc2)c1 (centres unmarked) [CBK307408] | 91.734
39 | COc1ccc(Cl)cc1N1CCN(Cc2ccc(C(C)C)cc2)CC1 [CBK126407] | 76.1183
40 | Cc1ccc(-n2nc(-c3ccc(NC(=O)c4ccccc4)cc3)cc2NC(=O)c2ccccc2)cc1 [CBK261265] | 93.6087
41 | CCOC(=O)C1CC1CN1CCCN(S(=O)(=O)c2ccc(C(=O)c3ccccc3)cc2)CC1 (centres unmarked) [CBK063028] | 81.1196

From paper PMC12040169 (PLOS Biology, 2025)
